For 4 molecules, koff results are on record in patent US20230192795A1 (Hoffmann-La Roche, published 2023).

The experiment has as its target T1, Human IL7Ra-IL2Rγ-Fc heterodimer (human, biotin on the avi tag).
T1 construct: Extracellular domains of IL-7Ralpha and IL-2Rgamma fused to Fc knob and Fc hole; also called hu IL7Ra-IL2Rγ-Fc avi biotin; human IL7Ra-IL2Rg-Fc biotin
Nature of the experiment: SPR, captured from supernatant, 800 nM receptor-Fc single injection. Here is the method:
Surface Plasmon Resonacne (SPR) experiments were performed on a Biacore T200 with HBS-EP+ as running buffer (0.01 M HEPES pH 7.4, 0.15 M NaCl, 0.005% Surfactant P20 (BR-1006-69, GE Healthcare)). Fc specific antibodies (Roche internal) were directly immobilized by amine coupling on a CM5 chip (GE Healthcare). The PDI-IL7 constructs were captured from supernatants for 120 s at 100 nM. […] Only the extracellular domains were fused to Fc domains, produced in HEK Expi Cells and purified by two-step column chromatography including affinity purification via Protein A followed by size-exclusion chromatography. A single injection of 800 nM hu IL 7Ra-IL2Rγ-Fc heterodimer was passed over the ligand at 30 µ1/min for 240 sec to record the association phase. The dissociation phase was monitored for 360 s and triggered by switching from the sample solution to HBS-EP+. The chip surface was regenerated after every cycle using one injection of 10 mM glycine pH 2 for 60 sec. Bulk refractive index differences were corrected for by subtracting the response obtained on the reference flow cell 1. The response units after the capture step and at the end of the association phase were recorded and a ratio of binding to capture was calculated. The single binding curves were fitted in the dissociation phase to obtain a koff for ease of comparison (Biacore Evaluation software, GE Healthcare).
The ratio of binding to capture was calculated and the dissociation phase was fitted to a single curve to support characterization of the off-rate. All N-glycosylation knock-out variants (single and triple mutants) have an off-rate similar to wild-type IL7 (Table 13).

B1: PD1-IL7-VAR29 (N-Glc KO, T72A) (other)
light: DIVMTQSPDSLAVSLGERATINCKASESVDTSDNSFIHWYQQKPGQSPKLLIYRSSTLESGVPDRFSGSGSGTDFTLTISSLQAEDVAVYYCQQNYDVPWTFGQGTKVEIKRTVAAPSVFIFPPSDEQLKSGTASVVCLLNNFYPREAKVQWKVDNALQSGNSQESVTEQDSKDSTYSLSSTLTLSKADYEKHKVYACEVTHQGLSSPVTKSFNRGEC
heavy 1: EVQLLESGGGLVQPGGSLRLSCAASGFSFSSYTMSWVRQAPGKGLEWVATISGGGRDIYYPDSVKGRFTISRDNSKNTLYLQMNSLRAEDTAVYYCVLLTGRVYFALDSWGQGTLVTVSSASTKGPSVFPLAPSSKSTSGGTAALGCLVKDYFPEPVTVSWNSGALTSGVHTFPAVLQSSGLYSLSSVVTVPSSSLGTQTYICNVNHKPSNTKVDKKVEPKSCDKTHTCPPCPAPEAAGGPSVFLFPPKPKDTLMISRTPEVTCVVVDVSHEDPEVKFNWYVDGVEVHNAKTKPREEQYNSTYRVVSVLTVLHQDWLNGKEYKCKVSNKALGAPIEKTISKAKGQPREPQVCTLPPSRDELTKNQVSLSCAVKGFYPSDIAVEWESNGQPENNYKTTPPVLDSDGSFFLVSKLTVDKSRWQQGNVFSCSVMHEALHNHYTQKSLSLSPGK
heavy 2: EVQLLESGGGLVQPGGSLRLSCAASGFSFSSYTMSWVRQAPGKGLEWVATISGGGRDIYYPDSVKGRFTISRDNSKNTLYLQMNSLRAEDTAVYYCVLLTGRVYFALDSWGQGTLVTVSSASTKGPSVFPLAPSSKSTSGGTAALGCLVKDYFPEPVTVSWNSGALTSGVHTFPAVLQSSGLYSLSSVVTVPSSSLGTQTYICNVNHKPSNTKVDKKV[human IgG1 Fc with changes left out]GGGGSGGGGSGGGGSDCDIEGKDGKQYESVLMVSIDQLLDSMKEIGSNCLNNEFNFFKRHICDANKEGMFLFRAARKLRQFLKMNSAGDFDLHLLKVSEGTTILLNCTGQVKGRKPAALGEAQPTKSLEENKSLKEQKKLNDLCFLKRLLQEIKTCWNKILMGTKEH
notes: Format as m1; IL-7 with T72A (N-glycosylation site knock-out)
As for B1, the koff amounted to 0.000645 s⁻¹.

B2: PD1-IL7-VAR30 (N-Glc KO, T93A) (other)
light: B1 light
heavy 1: B1 heavy 1
heavy 2: EVQLLESGGGLVQPGGSLRLSCAASGFSFSSYTMSWVRQAPGKGLEWVATISGGGRDIYYPDSVKGRFTISRDNSKNTLYLQMNSLRAEDTAVYYCVLLTGRVYFALDSWGQGTLVTVSSASTKGPSVFPLAPSSKSTSGGTAALGCLVKDYFPEPVTVSWNSGALTSGVHTFPAVLQSSGLYSLSSVVTVPSSSLGTQTYICNVNHKPSNTKVDKKV[human IgG1 Fc with changes left out]GGGGSGGGGSGGGGSDCDIEGKDGKQYESVLMVSIDQLLDSMKEIGSNCLNNEFNFFKRHICDANKEGMFLFRAARKLRQFLKMNSTGDFDLHLLKVSEGTTILLNCAGQVKGRKPAALGEAQPTKSLEENKSLKEQKKLNDLCFLKRLLQEIKTCWNKILMGTKEH
notes: Format as m1; IL-7 with T93A (N-glycosylation site knock-out)
Molecule B2 registered a koff of 0.000756 s⁻¹. This koff and that of the molecule before are within 1.5-fold of each other.

B3: PD1-IL7-VAR31 (N-Glc KO, S118A) (other)
light: B1 light
heavy 1: B1 heavy 1
heavy 2: EVQLLESGGGLVQPGGSLRLSCAASGFSFSSYTMSWVRQAPGKGLEWVATISGGGRDIYYPDSVKGRFTISRDNSKNTLYLQMNSLRAEDTAVYYCVLLTGRVYFALDSWGQGTLVTVSSASTKGPSVFPLAPSSKSTSGGTAALGCLVKDYFPEPVTVSWNSGALTSGVHTFPAVLQSSGLYSLSSVVTVPSSSLGTQTYICNVNHKPSNTKVDKKV[human IgG1 Fc with changes left out]GGGGSGGGGSGGGGSDCDIEGKDGKQYESVLMVSIDQLLDSMKEIGSNCLNNEFNFFKRHICDANKEGMFLFRAARKLRQFLKMNSTGDFDLHLLKVSEGTTILLNCTGQVKGRKPAALGEAQPTKSLEENKALKEQKKLNDLCFLKRLLQEIKTCWNKILMGTKEH
notes: Format as m1; IL-7 with S118A (N-glycosylation site knock-out)
As for B3, the koff stood at 0.000815 s⁻¹.

B4: PD1-IL7-VAR32 (N-Glc KO, T72A, T93A, S118A) (other)
light: B1 light
heavy 1: B1 heavy 1
heavy 2: EVQLLESGGGLVQPGGSLRLSCAASGFSFSSYTMSWVRQAPGKGLEWVATISGGGRDIYYPDSVKGRFTISRDNSKNTLYLQMNSLRAEDTAVYYCVLLTGRVYFALDSWGQGTLVTVSSASTKGPSVFPLAPSSKSTSGGTAALGCLVKDYFPEPVTVSWNSGALTSGVHTFPAVLQSSGLYSLSSVVTVPSSSLGTQTYICNVNHKPSNTKVDKKV[human IgG1 Fc with changes left out]GGGGSGGGGSGGGGSDCDIEGKDGKQYESVLMVSIDQLLDSMKEIGSNCLNNEFNFFKRHICDANKEGMFLFRAARKLRQFLKMNSAGDFDLHLLKVSEGTTILLNCAGQVKGRKPAALGEAQPTKSLEENKALKEQKKLNDLCFLKRLLQEIKTCWNKILMGTKEH
notes: Format as m1; IL-7 with T72A, T93A and S118A
In turn, B4 came in with a koff of 0.000477 s⁻¹.

For orientation: koff means the rate constant with which the complex falls apart. A high value points to fast dissociation.
